Normalised cell viability data for 34 compounds are collected here from the supplement of paper PMC6609913.

This test relates to V-C8 + BRCA2 (BRCA2-proficient hamster cells). The experiment in a line: normalised cell viability (fraction of plate median); higher = more viable cells (less toxic). The note with it: 5 µM. The method in brief: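 Cell viability was measured with a resazurin assay, normalised to the plate median (modified robust per cent of sample) and averaged over triplicate wells. Hamster V-C8 cells lacking BRCA2 and V-C8 cells with BRCA2 restored were seeded in 96-well plates. After 24 h, library drugs from 10 mM DMSO stocks were added at a final 5 μM in 100 μl medium and left for 3 days (screen 1) or 6 days (screen 2), with solvent-only wells alongside.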

Counter-ions that a name gives are not always drawn. ± gives the standard deviation of the averaged measurements. Over roughly 1,300 compounds, “normalised cell viability” has its median near 1; the lowest 2% begin near 0.15. This is one part of the list.

As to `CC#C[C@]1(O)CC[C@H]2[C@@H]3CCC4=CC(=O)CCC4=C3[C@@H](c3ccc(N(C)C)cc3)C[C@@]21C` [Mifepristone], the normalised cell viability reads like this: (treatment time: 3 days) 0.981 ± 0.086; (treatment time: 6 days) 0.98 ± 0.026.
Consider `CCCOc1ccccc1-c1nc2[nH]nnc2c(=O)[nH]1` [Zaprinast], for which the normalised cell viability worked out at 1.11 ± 0.09 (treatment time: 3 days) and 1.03 ± 0.018 (treatment time: 6 days).
On to `CCN(CC)C(=O)Nc1ccc(OCC(O)CNC(C)(C)C)c(C(C)=O)c1` (stereo not drawn) [Celiprolol HCl], for which the normalised cell viability was found to be 1 ± 0.048 (treatment time: 3 days) and 1.04 ± 0.11 (treatment time: 6 days).
Turning to `N[C@H]1CONC1=O` [(S)-(-)-Cycloserine], the normalised cell viability by setting is: (treatment time: 3 days) 1.04 ± 0.043; (treatment time: 6 days) 0.917 ± 0.29.
Consider `CCCCC1C(=O)N(c2ccccc2)N(c2ccc(O)cc2)C1=O` (stereo not drawn) [Oxyphenbutazone], for which the normalised cell viability is 1.13 ± 0.35 (treatment time: 3 days) and 0.825 ± 0.22 (treatment time: 6 days).
On to `COc1cc2nc(N3CCN(C(=O)C4COc5ccccc5O4)CC3)nc(N)c2cc1OC` (stereo not drawn) [Doxazosin mesylate], for which the normalised cell viability (treatment time: 3 days) worked out at 0.937 ± 0.049 and the normalised cell viability (treatment time: 6 days) worked out at 0.95 ± 0.0022.
In the case of `CCN(CCCCOC(=O)c1ccc(OC)c(OC)c1)C(C)Cc1ccc(OC)cc1` (stereo not drawn) [Mebeverine hydrochloride], the normalised cell viability (treatment time: 3 days) is 1.01 ± 0.019 and the normalised cell viability (treatment time: 6 days) stood at 0.949 ± 0.12.
For `Cc1cc(C(C)(C)C)cc(C)c1CC1=NCCN1` [Xylometazoline hydrochloride], the normalised cell viability is 1 ± 0.036 (treatment time: 3 days) and 1.02 ± 0.02 (treatment time: 6 days).
Turning to `CCN(CC)C(=O)C1(c2ccccc2)CC1CN` (stereo not drawn) [Milnacipran hydrochloride], the normalised cell viability is, setting by setting: (treatment time: 3 days) 0.956 ± 0.095; (treatment time: 6 days) 0.937 ± 0.048.
As for `O=P(O)(O)C(O)(Cn1ccnc1)P(=O)(O)O` [Zoledronic acid hydrate], the normalised cell viability reads like this: (treatment time: 3 days) 1.04 ± 0.021; (treatment time: 6 days) 0.94 ± 0.083.
`CCN(CC)CCOCCOC(=O)C1(c2ccccc2)CCCC1` [Carbetapentane citrate]: the normalised cell viability turned out to be 0.163 ± 0.0089 (treatment time: 3 days) and 0.181 ± 0.0049 (treatment time: 6 days).
On to `C=CCOc1ccccc1OCC(O)CNC(C)C` (stereo not drawn) [Oxprenolol hydrochloride], for which the normalised cell viability (treatment time: 3 days) is 1.05 ± 0.041 and the normalised cell viability (treatment time: 6 days) stood at 1.06 ± 0.059.
For `NC[C@H]1O[C@H](O[C@H]2[C@H](O)[C@@H](O[C@H]3O[C@H](CO)[C@@H](O)[C@H](N)[C@H]3O)[C@H](N)C[C@@H]2N)[C@H](N)C[C@@H]1O` [Tobramycin] the same measures were 0.986 ± 0.053 and 1.03 ± 0.036.
As for `Cc1c(N)c(=O)n(-c2ccccc2)n1C` [Ampyrone], the normalised cell viability came to 1.02 ± 0.02 (treatment time: 3 days) and 0.996 ± 0.013 (treatment time: 6 days).
On to `CCOC(=O)/C=C(C)/C=C/C=C(C)/C=C/c1c(C)cc(OC)c(C)c1C` [Etretinate], for which the normalised cell viability by setting is: (treatment time: 3 days) 1.01 ± 0.043; (treatment time: 6 days) 1.13 ± 0.071.
On the same counts, the results for `c1ccc(CNc2ncnc3nc[nH]c23)cc1` [Aminopurine, 6-benzyl] are 0.976 ± 0.01 and 1.02 ± 0.072.
For `CN1Cc2c(N)cccc2C(c2ccccc2)C1` (stereo not drawn) [Nomifensine maleate] the same measures were 1.13 ± 0.051 and 1.07 ± 0.087.
On the same counts, the results for `CC(C)(O)c1ccccc1CC[C@@H](SCC1(CC(=O)O)CC1)c1cccc(/C=C/c2ccc3ccc(Cl)cc3n2)c1` [Montelukast] are 1.01 ± 0.059 and 1.06 ± 0.065.
Take `COc1c(N2CCNC(C)C2)c(F)cc2c(=O)c(C(=O)O)cn(C3CC3)c12` (stereo not drawn) [Gatifloxacin]: the normalised cell viability was found to be 1.02 ± 0.051 (treatment time: 3 days) and 1.02 ± 0.037 (treatment time: 6 days).
As to `CCOC(=O)[C@@](C)(N)Cc1ccc(O)c(O)c1` [Methyldopate hydrochloride], the normalised cell viability is, setting by setting: (treatment time: 3 days) 0.931 ± 0.046; (treatment time: 6 days) 0.991 ± 0.043.
As for `O=C(c1ccccc1)c1ccc2n1CCC2C(=O)O` (stereo not drawn) [Ketorolac tromethamine], the normalised cell viability worked out at 1.06 ± 0.075 (treatment time: 3 days) and 1.06 ± 0.02 (treatment time: 6 days).
Consider `CO/N=C(\C(=O)N[C@@H]1C(=O)N2C(C(=O)OC(C)OC(C)=O)=C(COC(N)=O)CS[C@H]12)c1ccco1` (stereo partly drawn) [Cefuroxime axetil], for which the normalised cell viability (treatment time: 3 days) worked out at 1.01 ± 0.057 and the normalised cell viability (treatment time: 6 days) was found to be 1.04 ± 0.12.
As for `COc1ccccc1OCC(O)COC(N)=O` (stereo not drawn) [Methocarbamol], the normalised cell viability runs as follows: (treatment time: 3 days) 0.987 ± 0.04; (treatment time: 6 days) 1.05 ± 0.12.
Consider `Nc1ccn([C@@H]2CS[C@H](CO)O2)c(=O)n1` [Lamivudine], for which the normalised cell viability is, setting by setting: (treatment time: 3 days) 0.335 ± 0.012; (treatment time: 6 days) 0.406 ± 0.023.
Take `Cc1cc(N)c2ccccc2[n+]1CCCCCCCCCC[n+]1c(C)cc(N)c2ccccc21` [Dequalinium dichloride]: the normalised cell viability turned out to be 0.173 ± 0.013 (treatment time: 3 days) and 0.191 ± 0.012 (treatment time: 6 days).
On the same counts, the results for `NC1CCN(c2nc3c(cc2F)c(=O)c(C(=O)O)cn3-c2ccc(F)cc2F)C1` (stereo not drawn) [Tosufloxacin hydrochloride] are 1.01 ± 0.016 and 1.09 ± 0.024.
For `COC(=O)Nc1nc2cc([S+]([O-])c3ccccc3)ccc2[nH]1` (stereo not drawn) [Oxfendazol], the normalised cell viability (treatment time: 3 days) was 0.74 ± 0.055 and the normalised cell viability (treatment time: 6 days) stood at 0.827 ± 0.05.
Regarding `CCCOc1ccc(C(=O)OCCN(CC)CC)cc1N` [Proparacaine hydrochloride], the normalised cell viability runs as follows: (treatment time: 3 days) 0.857 ± 0.1; (treatment time: 6 days) 0.953 ± 0.05.
As for `CC[C@@H](CO)NCCN[C@@H](CC)CO` [Ethambutol dihydrochloride], the normalised cell viability is, setting by setting: (treatment time: 3 days) 1.05 ± 0.058; (treatment time: 6 days) 1 ± 0.011.
`C[C@]1(Cn2ccnn2)[C@H](C(=O)O)N2C(=O)C[C@H]2S1(=O)=O` [Tazobactam]: the normalised cell viability reads like this: (treatment time: 3 days) 0.967 ± 0.064; (treatment time: 6 days) 0.933 ± 0.068.
On the same counts, the results for `CC(CN(C)C)C(C)(O)Cc1ccc(Cl)cc1` (stereo not drawn) [Clobutinol hydrochloride] are 1.08 ± 0.019 and 1.03 ± 0.07.
For `CC(=O)OCC(=O)[C@@]1(OC(C)=O)[C@@H](C)C[C@H]2[C@@H]3C[C@H](F)C4=CC(=O)C=C[C@]4(C)[C@@]3(F)[C@@H](O)C[C@@]21C` [Diflorasone Diacetate] the same measures were 1.06 ± 0.074 and 1.08 ± 0.034.
As to `C=CCOC(Cn1ccnc1)c1ccc(Cl)cc1Cl` (stereo not drawn) [Enilconazole], the normalised cell viability was determined as 0.985 ± 0.021 (treatment time: 3 days) and 1.04 ± 0.013 (treatment time: 6 days).
In the case of `C#C[C@]1(O)CC[C@H]2[C@@H]3CCC4=CC(=O)CC[C@@H]4[C@H]3CC[C@@]21CC` [Norgestrel-(-)-D], the normalised cell viability turned out to be 1.01 ± 0.033 (treatment time: 3 days) and 1.16 ± 0.27 (treatment time: 6 days).
